# Assay results taken from the supplement of paper PMC8728848.
# Some of the results follow.
# B1: GSL-I-B4 (Griffonia simplicifolia) (protein)
# chain: NFWSDVEDSIIFQGDANTTAGTLQLCKTNQYGTPLQWSAGRALYSDPVQLWDNKTESVASFYTEFTFFLKITGNGPADGLAFFLAPPDSDVKDAGEYLGLFNKSTATQPSKNQVVAVEFDTWTNPNFPEPSYRHIGINVNSIVSVATKRWEDSDIFSGKIATARISYDGSAEILTVVLSYPDGSDYILSHSVDMRQNLPESVRVGISASTGNNQFLTVYILSWRFSSNLQSTSVKAAMEPEITRTVV
# Assays:
# Assay in all cases: glycan array binding signal (z-score within array); higher = stronger binding
# Details in all cases: glycan notation: IUPAC condensed, linker removed
# [1] = target: Gal(b1-3)GlcNAc(b1-3)Gal(b1-4)GlcNAc(b1-2)[Gal(b1-3)GlcNAc(b1-3)Gal(b1-4)GlcNAc(b1-6)]Man(a1-6)[Gal(b1-3)GlcNAc(b1-3)Gal(b1-4)GlcNAc(b1-2)Man(a1-3)]Man(b1-4)GlcNAc(b1-4)[Fuc(a1-6)]GlcNAc
# Procedure, shortened: (§1)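 Arrays were curated from the Consortium for Functional Glycomics database, 3228 in total, and kept only where the protein sequence was available. Binding is expressed as a within-array Z-score. This score was averaged across arrays of the same protein sequence at different concentrations or buffers and across linkers, and negative values can be read as non-binding.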
# [2] = target: Gal(b1-3)GlcNAc(b1-3)Gal(b1-4)GlcNAc(b1-3)Gal(b1-4)GlcNAc(b1-2)[Gal(b1-3)GlcNAc(b1-3)Gal(b1-4)GlcNAc(b1-3)Gal(b1-4)GlcNAc(b1-6)]Man(a1-6)[Gal(b1-3)GlcNAc(b1-3)Gal(b1-4)GlcNAc(b1-3)Gal(b1-4)GlcNAc(b1-2)Man(a1-3)]Man(b1-4)GlcNAc(b1-4)[Fuc(a1-6)]GlcNAc
# Procedure, shortened: as §1
# [3] = target: Gal(b1-3)GlcNAc(b1-3)Gal(b1-4)GlcNAc(b1-6)[Gal(b1-3)GlcNAc(b1-3)]Gal(b1-4)Glc
# Procedure, shortened: as §1
# [4] = target: Gal(b1-3)GlcNAc(b1-3)Gal(b1-4)[Fuc(a1-3)]GlcNAc
# Procedure, shortened: as §1
# [5] = target: Gal(b1-3)GlcNAc(b1-3)Gal(b1-4)[Fuc(a1-3)]GlcNAc(b1-6)[Gal(b1-3)GlcNAc(b1-3)]Gal(b1-4)Glc
# Procedure, shortened: as §1
# [6] = target: Gal(b1-3)GlcNAc(b1-3)GalNAc
# Procedure, shortened: as §1
# [7] = target: Gal(b1-3)GlcNAc(b1-6)Gal(b1-4)GlcNAc
# Procedure, shortened: as §1
# [8] = target: Gal(b1-3)GlcNAc(b1-6)GalNAc
# Procedure, shortened: as §1
# [9] = target: Gal(b1-3)GlcNAc(b1-6)[Gal(b1-3)]GalNAc
# Procedure, shortened: as §1
# [10] = target: Gal(b1-3)GlcNAc6S
# Procedure, shortened: as §1
# [11] = target: Gal(b1-3)[Fuc(a1-4)]GlcNAc
# Procedure, shortened: as §1
# [12] = target: Gal(b1-3)[Fuc(a1-4)]GlcNAc(b1-2)Man
# Procedure, shortened: as §1
# [13] = target: Gal(b1-3)[Fuc(a1-4)]GlcNAc(b1-2)Man(a1-3)[Gal(b1-3)[Fuc(a1-4)]GlcNAc(b1-2)Man(a1-6)]Man(b1-4)GlcNAc(b1-4)[Fuc(a1-6)]GlcNAc
# Procedure, shortened: as §1
# [14] = target: Gal(b1-3)[Fuc(a1-4)]GlcNAc(b1-3)Gal(b1-3)[Fuc(a1-4)]GlcNAc
# Procedure, shortened: as §1
# [15] = target: Gal(b1-3)[Fuc(a1-4)]GlcNAc(b1-3)Gal(b1-4)[Fuc(a1-3)]GlcNAc
# Procedure, shortened: as §1
# [16] = target: Gal(b1-3)[Fuc(a1-4)]GlcNAc(b1-6)GalNAc
# Procedure, shortened: as §1
# [17] = target: Gal(b1-3)[GlcNAc(b1-6)]GalNAc
# Procedure, shortened: as §1
# [18] = target: Gal(b1-3)[Neu5Ac(a2-6)]GalNAc
# Procedure, shortened: as §1
# [19] = target: Gal(b1-3)[Neu5Ac(a2-6)]GlcNAc(b1-4)Gal(b1-4)Glc
# Procedure, shortened: as §1
# [20] = target: Gal(b1-3)[Neu5Ac(b2-6)]GalNAc
# Procedure, shortened: as §1
# [21] = target: Gal(b1-4)Gal
# Procedure, shortened: as §1
# [22] = target: Gal(b1-4)GalNAc(a1-3)[Fuc(a1-2)]Gal(b1-4)GlcNAc
# Procedure, shortened: as §1
# [23] = target: Gal(b1-4)GalNAc(b1-3)[Fuc(a1-2)]Gal(b1-4)GlcNAc
# Procedure, shortened: as §1
# [24] = target: Gal(b1-4)Glc
# Procedure, shortened: as §1
# [25] = target: Gal(b1-4)Glc6S
# Procedure, shortened: as §1
# [26] = target: Gal(b1-4)GlcNAc
# Procedure, shortened: as §1
# [27] = target: Gal(b1-4)GlcNAc(a1-6)Gal(b1-4)GlcNAc
# Procedure, shortened: as §1
# [28] = target: Gal(b1-4)GlcNAc(b1-2)Man
# Procedure, shortened: as §1
# [29] = target: Gal(b1-4)GlcNAc(b1-2)Man(a1-3)Man(b1-4)GlcNAc(b1-4)GlcNAc
# Procedure, shortened: as §1
# [30] = target: Gal(b1-4)GlcNAc(b1-2)Man(a1-3)[Gal(b1-4)GlcNAc(b1-2)Man(a1-6)]Man(b1-4)GlcNAc(b1-4)GlcNAc
# Procedure, shortened: as §1
# [31] = target: Gal(b1-4)GlcNAc(b1-2)Man(a1-3)[Gal(b1-4)GlcNAc(b1-2)Man(a1-6)]Man(b1-4)GlcNAc(b1-4)[Fuc(a1-6)]GlcNAc
# Procedure, shortened: as §1
# [32] = target: Gal(b1-4)GlcNAc(b1-2)Man(a1-3)[Gal(b1-4)GlcNAc(b1-2)Man(a1-6)][Gal(b1-4)GlcNAc(b1-4)]Man(b1-4)GlcNAc(b1-4)[Fuc(a1-6)]GlcNAc
# Procedure, shortened: as §1
# [33] = target: Gal(b1-4)GlcNAc(b1-2)Man(a1-3)[Gal(b1-4)GlcNAc(b1-2)Man(a1-6)][GlcNAc(b1-4)]Man(b1-4)GlcNAc(b1-4)[Fuc(a1-6)]GlcNAc
# Procedure, shortened: as §1
# [34] = target: Gal(b1-4)GlcNAc(b1-2)Man(a1-3)[GlcNAc(b1-2)Man(a1-6)]Man(b1-4)GlcNAc(b1-4)GlcNAc
# Procedure, shortened: as §1
# [35] = target: Gal(b1-4)GlcNAc(b1-2)Man(a1-3)[GlcNAc(b1-4)][Gal(b1-4)GlcNAc(b1-2)Man(a1-6)]Man(b1-4)GlcNAc(b1-4)GlcNAc
# Procedure, shortened: as §1
# [36] = target: Gal(b1-4)GlcNAc(b1-2)Man(a1-3)[Man(a1-6)]Man(b1-4)GlcNAc(b1-4)GlcNAc
# Procedure, shortened: as §1
# [37] = target: Gal(b1-4)GlcNAc(b1-2)Man(a1-6)Man(b1-4)GlcNAc(b1-4)GlcNAc
# Procedure, shortened: as §1
# [38] = target: Gal(b1-4)GlcNAc(b1-2)Man(a1-6)[GlcNAc(b1-2)Man(a1-3)]Man(b1-4)GlcNAc(b1-4)GlcNAc
# Procedure, shortened: as §1
binder,measurement,setting,value
B1,glycan array binding signal (z-score),[1],0.283
same,glycan array binding signal (z-score),[2],-0.001
same,glycan array binding signal (z-score),[3],-0.187
same,glycan array binding signal (z-score),[4],-0.177
same,glycan array binding signal (z-score),[5],-0.128
same,glycan array binding signal (z-score),[6],-0.18
same,glycan array binding signal (z-score),[7],-0.192
same,glycan array binding signal (z-score),[8],-0.164
same,glycan array binding signal (z-score),[9],-0.181
same,glycan array binding signal (z-score),[10],-0.154
same,glycan array binding signal (z-score),[11],-0.161
same,glycan array binding signal (z-score),[12],-0.183
same,glycan array binding signal (z-score),[13],-0.133
same,glycan array binding signal (z-score),[14],-0.179
same,glycan array binding signal (z-score),[15],-0.163
same,glycan array binding signal (z-score),[16],-0.028
same,glycan array binding signal (z-score),[17],-0.205
same,glycan array binding signal (z-score),[18],-0.216
same,glycan array binding signal (z-score),[19],-0.183
same,glycan array binding signal (z-score),[20],-0.222
same,glycan array binding signal (z-score),[21],-0.146
same,glycan array binding signal (z-score),[22],-0.177
same,glycan array binding signal (z-score),[23],-0.194
same,glycan array binding signal (z-score),[24],-0.126
same,glycan array binding signal (z-score),[25],-0.14
same,glycan array binding signal (z-score),[26],-0.16
same,glycan array binding signal (z-score),[27],-0.154
same,glycan array binding signal (z-score),[28],-0.161
same,glycan array binding signal (z-score),[29],-0.182
same,glycan array binding signal (z-score),[30],-0.168
same,glycan array binding signal (z-score),[31],-0.129
same,glycan array binding signal (z-score),[32],-0.172
same,glycan array binding signal (z-score),[33],-0.134
same,glycan array binding signal (z-score),[34],-0.21
same,glycan array binding signal (z-score),[35],-0.15
same,glycan array binding signal (z-score),[36],-0.116
same,glycan array binding signal (z-score),[37],-0.205
same,glycan array binding signal (z-score),[38],-0.159
